In US20200030425 (published 2020) one finds EC50 data, which are given here for one molecule.

This experiment addresses T1, human ICOS on activated CD4+ T cells (human).
T1 chain: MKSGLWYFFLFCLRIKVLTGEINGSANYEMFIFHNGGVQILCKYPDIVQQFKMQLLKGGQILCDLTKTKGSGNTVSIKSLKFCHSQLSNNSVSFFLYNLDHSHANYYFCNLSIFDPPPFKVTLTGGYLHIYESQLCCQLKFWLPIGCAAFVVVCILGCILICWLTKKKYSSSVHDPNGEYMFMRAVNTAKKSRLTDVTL
Description: FACS.

Several values for one entry are separate records, joined by “and”; a condition that tells them apart may be missing. Equal values may be shown once.

B1: ICOS.33 IgG1f S267E (antibody)
chain 1: EVQLVESGGGLVKPGGSLRLSCAASGFTFSDYFMHWVRQAPGKGLEWVGVIDTKSFNYATYYSDLVKGRFTISRDDSKNTLYLQMNSLKTEDTAVYYCTATIAVPYYFDYWGQGTLVTVSSASTKGPSVFPLAPSSKSTSGGTAALGCLVKDYFPEPVTVSWNSGALTSGVHTFPAVLQSSGLYSLSSVVTVPSSSLGTQTYICNVNHKPSNTKVDKRV[human IgG1 Fc with changes not shown]
chain 2: DIQMTQSPSSLSASVGDRVTITCQASQDISNYLSWYQQKPGKAPKLLIYYTNLLAEGVPSRFSGSGSGTDFTFTISSLQPEDIATYYCQQYYNYRTFGPGTKVDIKRTVAAPSVFIFPPSDEQLKSGTASVVCLLNNFYPREAKVQWKVDNALQSGNSQESVTEQDSKDSTYSLSSTLTLSKADYEKHKVYACEVTHQGLSSPVTKSFNRGEC
As for B1, the 50% effective concentration (EC50) is ~0.07 µg/mL and ~0.08 µg/mL.
